# The BET-seq Pho4 binding data (Le et al. 2018)
# The list shows a part of the results. These are noisy estimates, calculated here from bound and input reads.
# Molecular target: T1, Pho4 (S. cerevisiae) (UniProt P07270)
# T1 sequence: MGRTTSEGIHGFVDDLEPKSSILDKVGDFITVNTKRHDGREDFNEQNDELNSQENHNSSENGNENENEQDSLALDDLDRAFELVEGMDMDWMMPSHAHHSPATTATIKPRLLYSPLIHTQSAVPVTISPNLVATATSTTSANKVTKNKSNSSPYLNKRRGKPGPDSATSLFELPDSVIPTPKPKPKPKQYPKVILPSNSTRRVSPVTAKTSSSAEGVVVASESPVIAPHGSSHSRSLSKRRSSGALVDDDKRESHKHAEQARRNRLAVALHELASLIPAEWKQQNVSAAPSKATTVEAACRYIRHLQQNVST
# Test: relative binding free energy (BET-seq); higher = weaker binding
# Settings: reference: library average
row,Sequence,relative binding free energy
1,GTGGACACGTGAAGGG,0.29 kcal/mol
2,AAAGTCACGTGGGTAG,-0.08 kcal/mol
3,TGAGTCACGTGTCGAG,0.07 kcal/mol
4,AATTTCACGTGGGGAG,0.2 kcal/mol
5,GTGCTCACGTGAGGCG,0.39 kcal/mol
6,TAAGGCACGTGCGGTT,-0.11 kcal/mol
7,GAGGACACGTGATGGG,0.14 kcal/mol
8,TCGGTCACGTGCTGGT,0.14 kcal/mol
9,TTTAGCACGTGTGCAT,-0.12 kcal/mol
10,GGCTGCACGTGAGGAG,0.3 kcal/mol
11,GTATTCACGTGGGTCA,0.07 kcal/mol
12,TAGTTCACGTGGTGCT,0.23 kcal/mol
13,TATTGCACGTGTGTCA,0.04 kcal/mol
14,TACGACACGTGGGTTG,-0.12 kcal/mol
15,TGGGGCACGTGTATCT,-0.08 kcal/mol
16,TGTAGCACGTGCTGTT,-0.03 kcal/mol
17,TGTTACACGTGTGTGG,0.19 kcal/mol
18,TAAAGCACGTGATATA,0.05 kcal/mol
19,CGGGGCACGTGTCGTT,-0.19 kcal/mol
20,GTTATCACGTGCTAGT,0.09 kcal/mol
21,CTGGGCACGTGTAAAG,0.1 kcal/mol

row,Sequence,relative binding free energy
1,ATCTGCACGTGTGTTT,0.14 kcal/mol
2,TGATACACGTGTAGGT,0 kcal/mol
3,CCGTGCACGTGAGTGG,0.24 kcal/mol
4,ATGCACACGTGGTGTA,-0.02 kcal/mol
5,TTTGTCACGTGGTATT,0.04 kcal/mol
6,TTTAACACGTGGTTGA,-0.08 kcal/mol
7,AATAGCACGTGCATGT,0.05 kcal/mol
8,ATTTTCACGTGGAATG,0.24 kcal/mol
9,ATGGACACGTGAGTTG,0.34 kcal/mol
10,TGGAGCACGTGGGCGT,-0.18 kcal/mol
11,GGGAACACGTGGCAGT,0 kcal/mol
12,TCTTTCACGTGGGGCT,0.17 kcal/mol
13,TACTACACGTGTTGTG,0.01 kcal/mol
14,GTGTGCACGTGACTAG,0.12 kcal/mol
15,GGGGACACGTGGACGG,0.16 kcal/mol
16,TAGGTCACGTGATTTC,0.36 kcal/mol
17,TATTCCACGTGTGTGA,0.14 kcal/mol
18,GGGGACACGTGTTTAG,0.08 kcal/mol
19,ATTGGCACGTGGCGCT,-0.16 kcal/mol
20,AGGCCCACGTGTTGTG,-0.12 kcal/mol
21,GTCGTCACGTGCATGT,0.16 kcal/mol

row,Sequence,relative binding free energy
1,TGTCCCACGTGGTAGG,-0.15 kcal/mol
2,GAGTTCACGTGCAGGG,0.31 kcal/mol
3,GTGTTCACGTGTAGAA,0.23 kcal/mol
4,AGTAACACGTGTGTTA,0 kcal/mol
5,TTGTTCACGTGGGCGT,0.18 kcal/mol
6,TGCGGCACGTGTTAGA,-0.09 kcal/mol
7,ACCTTCACGTGGGTTT,0.23 kcal/mol
8,GTTGACACGTGTTGTT,0.16 kcal/mol
9,GTAGACACGTGGGGAG,0 kcal/mol
10,GTAGGCACGTGTGTAC,-0.05 kcal/mol
11,TAGGTCACGTGCATTT,0.22 kcal/mol
12,CCGTGCACGTGTAAGG,0.18 kcal/mol
13,TGCGCCACGTGGGTAT,-0.23 kcal/mol
14,TGATGCACGTGTTGGT,-0.03 kcal/mol
15,TGTGCCACGTGTAGTA,-0.19 kcal/mol
16,CTGTACACGTGTTAGG,0.12 kcal/mol
17,GGTCGCACGTGGATGG,-0.07 kcal/mol
18,GAGGTCACGTGGCGGC,-0.04 kcal/mol
19,ATGGACACGTGGGGTC,-0.06 kcal/mol
20,CAAGGCACGTGTGGTG,-0.16 kcal/mol
21,AGTTACACGTGGTGGT,0.2 kcal/mol
